{"source": "the antibiotic and cytotoxicity screens of Wong et al. (2023)", "note": "Some of the results follow.", "data": [{"test_system": "HepG2", "assay": "cytotoxicity call (relative viability < 0.9)", "conditions": "10 µM", "values": [{"smiles": "CN(Cn1[nH]c(=O)ccc1=O)c1ccccc1", "cytotoxicity call": "inactive"}, {"smiles": "OC[C@H]1O[C@H]2O[C@@H]3[C@@H](O)[C@H](O)[C@H](O[C@@H]4[C@@H](O)[C@H](O)[C@H](O[C@@H]5[C@@H](O)[C@H](O)[C@H](O[C@@H]6[C@@H](O)[C@H](O)[C@H](O[C@@H]7[C@@H](O)[C@H](O)[C@H](O[C@@H]8[C@@H](O)[C@H](O)[C@H](O[C@@H]1[C@@H](O)[C@@H]2O)O[C@@H]8CO)O[C@@H]7CO)O[C@@H]6CO)O[C@@H]5CO)O[C@@H]4CO)O[C@@H]3CO", "cytotoxicity call": "inactive"}, {"smiles": "Cc1ccc(S(=O)(=O)Nc2ccc3c(c2)C(=O)N([C@H](C)CO)C[C@@H](C)[C@H](CN(C)S(=O)(=O)c2ccc(Cl)cc2)OCCCC[C@@H](C)O3)cc1", "cytotoxicity call": "active"}, {"smiles": "CC(C)C#Cc1ccc2c(c1)O[C@@H](CN(C)S(=O)(=O)c1cn(C)cn1)[C@@H](C)CN([C@@H](C)CO)S2(=O)=O", "cytotoxicity call": "inactive"}, {"smiles": "Cc1ccc(S(=O)(=O)Nc2ccc3c(c2)CC(=O)N([C@@H](C)CO)C[C@H](C)[C@H](CN(C)S(=O)(=O)c2cn(C)cn2)O3)cc1", "cytotoxicity call": "inactive"}, {"smiles": "CCN(CC)CCNC(=O)c1ccc(NC(C)=O)cc1.Cl", "cytotoxicity call": "inactive"}, {"smiles": "CO[C@@H](C(=O)N(C)C[C@H]1OCc2ccccc2-c2c(n(C)c3ccccc23)C(=O)N([C@@H](C)CO)C[C@H]1C)c1ccccc1", "cytotoxicity call": "inactive"}, {"smiles": "CCOC(=O)Cc1n[nH]c(=O)[nH]c1=O", "cytotoxicity call": "inactive"}, {"smiles": "C[C@@H]1CN([C@H](C)CO)C(=O)c2cccc(NS(=O)(=O)c3ccc(F)cc3)c2O[C@@H]1CN(C)C(=O)Nc1cccc2ccccc12", "cytotoxicity call": "inactive"}, {"smiles": "C[C@H]1CN([C@@H](C)CO)C(=O)c2cccc(NC(=O)c3cnccn3)c2O[C@H]1CN(C)S(=O)(=O)c1ccc(Cl)cc1", "cytotoxicity call": "inactive"}, {"smiles": "C[C@@](N)(C(=O)O)c1ccc(-c2nn[nH]n2)cc1", "cytotoxicity call": "inactive"}, {"smiles": "Cc1ccc(S(=O)(=O)Nc2ccc3c(c2)C(=O)N([C@@H](C)CO)C[C@H](C)[C@@H](CN(C)C(=O)Cc2ccccc2)OCCCC[C@H](C)O3)cc1", "cytotoxicity call": "inactive"}, {"smiles": "C[C@H]1CCCCO[C@H](CN(C)S(=O)(=O)c2ccc(F)cc2)[C@@H](C)CN([C@@H](C)CO)C(=O)c2cc(NC(=O)Cc3ccccc3)ccc2O1", "cytotoxicity call": "inactive"}, {"smiles": "Cc1noc(C)c1S(=O)(=O)N(C)C[C@H]1Oc2ccc(NC(=O)Cc3cn(C)c4ccccc34)cc2CC(=O)N([C@@H](C)CO)C[C@H]1C", "cytotoxicity call": "inactive"}, {"smiles": "C[C@H](CO)N1C[C@H](C)[C@H](CN(C)C(=O)NC2CCCCC2)Oc2ccc(NC(=O)Nc3cccc4ccccc34)cc2C1=O", "cytotoxicity call": "inactive"}, {"smiles": "COc1cccc(S(=O)(=O)N(C)C[C@@H]2Oc3cc(C#CCN(C)C)ccc3S(=O)(=O)N([C@H](C)CO)C[C@H]2C)c1", "cytotoxicity call": "inactive"}, {"smiles": "Cc1noc(C)c1NC(=O)Nc1ccc2c(c1)C(=O)N([C@@H](C)CO)C[C@H](C)[C@H](CN(C)S(C)(=O)=O)O2", "cytotoxicity call": "inactive"}, {"smiles": "CCCC#Cc1ccc2c(c1)O[C@@H](CN(C)Cc1ccc3c(c1)OCO3)[C@H](C)CN([C@H](C)CO)S2(=O)=O", "cytotoxicity call": "inactive"}, {"smiles": "C[C@@H]1CCCCO[C@H](CN(C)S(=O)(=O)c2ccc(Cl)cc2)[C@H](C)CN([C@H](C)CO)C(=O)c2cc(NS(=O)(=O)c3ccc(Cl)cc3)ccc2O1", "cytotoxicity call": "active"}, {"smiles": "COc1ccc(S(=O)(=O)Nc2ccc3c(c2)C(=O)N([C@H](C)CO)C[C@H](C)[C@H](CN(C)Cc2ccc(-c4ccccc4)cc2)O3)cc1", "cytotoxicity call": "inactive"}, {"smiles": "CCCNCC(O)COc1ccccc1C(=O)CCc1ccccc1.Cl", "note": "(stereo not given)", "cytotoxicity call": "active"}, {"smiles": "COc1ccccc1CN1C(=O)c2ccccc2[C@](Cc2ccccc2I)(C(=O)NCC(C)C)[C@@H]1c1ccc(CO)cc1", "cytotoxicity call": "inactive"}, {"smiles": "C[C@@H]1CN([C@@H](C)CO)C(=O)Cc2cc(NC(=O)CCCCCC(=O)Nc3ccccc3N)ccc2O[C@@H]1CN(C)CC1CCCCC1", "cytotoxicity call": "active"}, {"smiles": "Cc1noc(C)c1S(=O)(=O)N(C)C[C@H]1Oc2c(NS(=O)(=O)c3ccccc3)cccc2C(=O)N([C@@H](C)CO)C[C@H]1C", "cytotoxicity call": "inactive"}, {"smiles": "C[C@@H]1CCCCO[C@@H](CN(C)C(=O)NC2CCCCC2)[C@@H](C)CN([C@@H](C)CO)C(=O)c2cc(NC(=O)Cc3ccccc3)ccc2O1", "cytotoxicity call": "inactive"}, {"smiles": "COc1ccc(NC(=O)N(C)C[C@H]2OCc3cnnn3CCCC(=O)N([C@H](C)CO)C[C@@H]2C)c(OC)c1", "cytotoxicity call": "inactive"}, {"smiles": "Cc1noc(C)c1NC(=O)N(C)C[C@@H]1Oc2ccc(NS(=O)(=O)c3ccccc3)cc2CC(=O)N([C@@H](C)CO)C[C@@H]1C", "cytotoxicity call": "inactive"}, {"smiles": "O=C(NC[C@H]1Cn2nncc2CO1)c1ccc[nH]1", "cytotoxicity call": "inactive"}, {"smiles": "C[C@H](CO)N1C[C@H](C)[C@@H](CN(C)C(=O)c2ccc(F)cc2)OCc2ccccc2-c2c(n(C)c3ccccc23)C1=O", "cytotoxicity call": "inactive"}, {"smiles": "O=C(C[C@@H]1CC[C@H]2[C@@H](COC[C@H](O)CN2C(=O)c2ccncc2)O1)NC1CCC1", "cytotoxicity call": "inactive"}, {"smiles": "C[C@@H]1CN([C@@H](C)CO)C(=O)c2cc(NC(=O)C3CCCCC3)ccc2O[C@@H](C)CCCCO[C@H]1CN(C)Cc1ccc(C(=O)O)cc1", "cytotoxicity call": "inactive"}, {"smiles": "C[C@@H]1CN([C@H](C)CO)C(=O)c2cc(NC(=O)Nc3cccc4ccccc34)ccc2O[C@H]1CN(C)S(=O)(=O)c1cccs1", "cytotoxicity call": "inactive"}, {"smiles": "C[C@H](CO)N1C[C@H](C)[C@H](CN(C)Cc2ccc(Oc3ccccc3)cc2)Oc2ccc(NC(=O)Nc3ccc(F)cc3)cc2C1=O", "cytotoxicity call": "active"}, {"smiles": "C[C@@H]1CCCCO[C@H](CN(C)Cc2ccc3c(c2)OCO3)[C@H](C)CN([C@H](C)CO)C(=O)c2cc(NC(=O)Nc3ccc(F)cc3)ccc2O1", "cytotoxicity call": "inactive"}, {"smiles": "C[C@@H]1CN([C@H](C)CO)C(=O)Cc2cc(NC(=O)Nc3ccc(C(F)(F)F)cc3)ccc2O[C@H]1CN(C)Cc1ccccc1", "cytotoxicity call": "active"}, {"smiles": "COCC(=O)N(C)C[C@@H]1Oc2cc(C#Cc3ccccc3)ccc2S(=O)(=O)N([C@H](C)CO)C[C@@H]1C", "cytotoxicity call": "inactive"}, {"smiles": "C[C@H]1CN([C@@H](C)CO)C(=O)c2cc(NC(=O)Nc3ccc(C(F)(F)F)cc3)ccc2O[C@H]1CN(C)S(C)(=O)=O", "cytotoxicity call": "inactive"}, {"smiles": "O=c1c(O[C@@H]2O[C@H](CO)[C@@H](O)[C@H](O)[C@H]2O)c(-c2ccc(O)c(O)c2)oc2cc(O)cc(O)c12", "cytotoxicity call": "inactive"}, {"smiles": "COc1ccc(NC(=O)N(C)C[C@H]2OCCCC[C@@H](C)Oc3ccc(NC(=O)CCC(F)(F)F)cc3C(=O)N([C@H](C)CO)C[C@@H]2C)cc1", "cytotoxicity call": "inactive"}, {"smiles": "C[C@H]1CN([C@@H](C)CO)C(=O)c2cc(NS(C)(=O)=O)ccc2O[C@@H]1CN(C)S(=O)(=O)c1ccccc1", "cytotoxicity call": "inactive"}]}]}
